From PubChem BioAssay AID463173 (ICCB-Longwood Screening Facility, Harvard Medical School, 2010) come the findings set out here.

SMILES strings stand for the structures. Out of some 52,000 compounds screened, about 4,300 (8.3%) were called active. No stated cut-off is given here; in the data, active means survival mostly below about 52% (no sharp cut-off); inactive means mostly above about 56%. This is one part of the list.

For the experiment, the system named is DeltatarO mutant. The experiment can be described thus: growth inhibition of S. aureus wild type versus tarO mutant, primary screen, teichoic acid synthesis inhibitors, RN4220, OD600 (AID 463173). The following applies: OD600, 18 h, hits give low values, screened at 18.75 µg/mL (by protocol).
Regarding `Cc1c(CCC(=O)NCCc2ccccc2)c(=O)oc2c(C)c(O)ccc12`, the survival is inactive: 80%.
Then `Cc1ccc(CCNS(=O)(=O)c2cc(-c3cc(C)no3)ccc2C)cc1`, with inactive: 96%; and `CCOc1ccc(C(=O)NCc2ccc3c(c2)CCN3C(=O)c2ccc(Cl)cc2)cc1`, with inactive: 91%.
Take `O=C(NC1CC(=O)N(c2cccc(F)c2)C1)c1cccs1` (stereo not given): the survival is inactive: 85%.
On to `Cc1cccc(-n2ncc(C(=O)N3CCOCC3)c2C2CCN(C(=O)OC(C)(C)C)CC2)c1`, for which the survival was inactive: 97%.
For the compound `CC(C)N(C(=O)Cn1cc(SCC(=O)Nc2ccccc2F)c2ccccc21)C(C)C`, the survival was inactive: 60%.
Then `CC12CN3CC(c4ccccc4)(CN(C1)C3c1ccc(O)cc1)C2=O` (stereo not given), with inactive: 74%; and `Cn1c(=O)oc2cc(S(=O)(=O)NC(Cc3ccccc3)C(=O)Nc3ccc(F)cc3)ccc21` (stereo not given), with inactive: 84%; and `CCOC(=O)c1c(NC(=O)C(C)Sc2cn(CCNC(=O)c3c(F)cccc3F)c3ccccc23)sc2c1CCC2` (stereo not given), with inactive: 84%.
For `COc1cccc(CNC(=O)c2cc(C)nc3c2c(C)nn3-c2ccc(C)cc2)c1`, the survival was inactive: 92%.
Regarding `CC(=O)OCC1OC(n2ccc3ccccc32)C(OC(C)=O)C(OC(C)=O)C1OC(C)=O` (stereo not given), the survival is inactive: 97%.
Regarding `COc1ccc(OC)c(NC(=O)CSc2ccc(-c3cccs3)nn2)c1`, the survival was inactive: 78%.
Turning to `COc1cc(OC)c(NC(=O)C2CCN(S(=O)(=O)c3c(C)noc3/C=C/c3c(C)cc(C)cc3C)CC2)cc1Cl`, the survival is inactive: 101%.
`Cc1ccc(Cn2c(C(=O)O)c(CNCc3ccc(OC(C)C)cc3)c3ccc(C)cc32)cc1`: the survival is active: 11%.
`CN(Cc1ccccc1)C(=O)c1cn(C)c2ccc(S(=O)(=O)N3CCCCC3)cc2c1=O`: the survival is inactive: 80%.
In the case of `COc1cccc(OCc2nc3ccccc3n2CCOc2ccc(C)cc2)c1` it was active: 36%.
Then `CN(C)c1ccc(CN(Cc2ccco2)C(=O)c2ccc(C(C)(C)C)cc2)cc1`, with inactive: 55%; and `CCOc1ccccc1NC(=O)NCc1ccc2c(c1)CCN2C(=O)c1ccccc1`, with inactive: 129%.
Then `COc1ccc(/C=C\c2onc(C)c2S(=O)(=O)N2CCC(C(=O)Nc3ccc(F)cc3F)CC2)cc1`, with inactive: 65%.
For `O=C(NCc1ccccc1Cl)c1ccc2c(c1)NC(=O)C(CS(=O)(=O)Cc1ccc(F)cc1Cl)N2` (stereo not given), the survival is inactive: 81%.
In the case of `O=C(NCCc1ccc(Cl)cc1)c1cnc2sc(N3CCOCC3)nn2c1=O` it was inactive: 77%; in that of `COc1cc(OC)c(Nc2nc3ccccc3c3nncn23)cc1Cl`, inactive: 119%; in that of `O=C(O)CN1CC(=O)Nc2ccccc21`, inactive: 88%.
For the compound `CCc1ccc(CNC(=O)c2cc(=O)[nH]c3ccc(S(=O)(=O)N4CCCCC4)cc23)cc1`, the survival was inactive: 86%.
For `CCOC(=O)c1c(C)oc2nc(C)nc(Nc3ccc(C)c(Cl)c3)c12`, the survival was inactive: 89%.
With `CCOC(=O)c1c(NC(=O)c2cc(C(C)C)on2)sc(C(C)=O)c1C`, the survival was inactive: 123%.
Consider `Cc1c(Cl)ccc2sc(N3CCN(C(=O)C(C)C)CC3)nc12`, for which the survival is inactive: 107%.
In the case of `Cc1ccc(Sc2c(C)nn(-c3ccccc3)c2OC(=O)C(C)(C)C)cc1` it was active: -10%; in that of `Cc1ccc(-c2cc(C(=O)Nc3cc([N+](=O)[O-])ccc3C)no2)cc1F`, inactive: 50%; in that of `COC(=O)c1c(NC(=O)C(C)Oc2ccc(Cl)c(C)c2)sc(C)c1C` (stereo not given), active: 15%.
Consider `COc1ccc(OC)c(NS(=O)(=O)c2cc3c(cc2Cl)N(C(C)=O)CCO3)c1`, for which the survival is inactive: 75%.
As to `CCCC(=O)Nc1nncs1`, the survival is inactive: 73%.
In the case of `CCOc1ccc(NC(=O)CC2C(=O)N(c3ccc(F)cc3)C(=O)N2Cc2ccc(OC)c(OC)c2)cc1` (stereo not given), the survival was inactive: 90%.
In the case of `Cc1ccc(C)c2sc(NC(=O)c3ccc(S(=O)(=O)N4CCC(C)CC4)cc3)nc12`, the survival was inactive: 83%.
Then `O=C(CSc1nc2cc(C(=O)NC3CCCC3)ccc2c(=O)n1CC1CCCO1)c1cccc(Cl)c1` (stereo not given), with active: 20%; and `CCN1C(=O)c2ccccc2S(=O)c2ccc(C(=O)NCc3ccc(OC)cc3)cc21` (stereo not given), with inactive: 66%.
In the case of `COc1ccc(OC)c(CCNC(=O)CS(=O)(=O)Cc2nc(-c3cccc(Cl)c3)oc2C)c1` it was inactive: 56%.
Turning to `CCOC(=O)c1ccc(N2C(=O)c3n[nH]c(-c4cccs4)c3C2c2ccc(OCC)cc2)cc1` (stereo not given), the survival is inactive: 93%.
In the case of `COc1ccc(CCNc2oc(/C=C/c3cc(OC)c(OC)c(OC)c3)nc2C#N)cc1OC`, the survival is inactive: 56%.
Take `CCCc1nc(NCCc2cccs2)c2nnn(Cc3ccccc3Cl)c2n1`: the survival is inactive: 85%.
As to `CCOC(=O)c1ccc(N2C(=O)c3[nH]nc(-c4ccccc4)c3C2c2ccc(CC)cc2)cc1` (stereo not given), the survival is inactive: 100%.
Consider `CCOc1ccccc1C(=O)N(Cc1ccco1)Cc1ccco1`, for which the survival was inactive: 73%.
Then `Cc1c(Cl)cccc1NC(=O)CC1Oc2ccccc2NC1=O` (stereo not given), with inactive: 89%; and `COc1ccccc1CNC(=O)C1CCCN(S(=O)(=O)c2ccc3c(c2)oc(=O)n3C)C1` (stereo not given), with inactive: 83%; and `COc1ccc(-c2cc(C(=O)Nc3c(C(=O)c4ccc(C)cc4)oc4ccccc34)no2)cc1`, with inactive: 48%.
In the case of `O=C(c1ccc2c(c1)N(Cc1ccccc1F)C(=O)c1ccccc1S2(=O)=O)N1CCC(Cc2ccccc2)CC1` it was inactive: 71%; in that of `O=C(Cn1c(=O)n(Cc2nc(-c3ccccc3)no2)c(=O)c2ccccc21)Nc1cccc(C(F)(F)F)c1`, inactive: 83%.
In the case of `CCCn1c(N2CCN(CC(=O)Nc3ccc(Cl)cc3)CC2)nc2ccccc21` it was inactive: 77%; in that of `O=c1c2sc3ccccc3c2n(Cc2cccc(F)c2)c(=O)n1Cc1ccccc1`, inactive: 78%.
`CCOC(=O)Cn1c(=O)n(CC2CCCO2)c2nc(-c3ccccc3OC)nc(C(N)=O)c21` (stereo not given): the survival was inactive: 70%.
In the case of `O=C(NCc1cccs1)c1ccc2c(=O)n3nc(Nc4ccccc4)sc3nc2c1` it was inactive: 96%.
With `CCN(c1ccccc1)S(=O)(=O)c1ccc(NC(=O)c2nc(SC)ncc2Cl)cc1`, the survival was inactive: 55%.
As to `CCN(CC)c1ccc(NC(=O)C2CCN(c3nnc(-n4cccc4)s3)CC2)c(C)c1`, the survival was inactive: 70%.
`Cc1cc(C)n(C(C)CC(=O)Nc2cccc(C(F)(F)F)c2)n1` (stereo not given): the survival was inactive: 73%.
In the case of `O=C(CCCn1c(=O)c2cccn2c2ccccc21)Nc1cc(C(F)(F)F)ccc1Cl` it was inactive: 62%.
